Test results: PubChem BioAssay AID624417 (National Center for Advancing Translational Sciences (NCATS), 2012)
The campaign covered roughly 410,000 compounds. About 6,400 (1.6%) were called active. The shares of active, inactive and inconclusive entries below differ from those in the screen. Calls come from the whole dose curve; as a rule, active = well fitted inhibition curve with a large enough effect; inconclusive = small, poorly fitted or top-dose-only effect; inactive = no such curve, though single readings can be large or run the other way. Potencies of inconclusive entries are left out as doubtful fits.

Molecular target: Glucagon-like peptide 1 receptor (Homo sapiens) (UniProt P43220)
Assay: qHTS of GLP-1 Receptor Inverse Agonists (Inhibition Mode); note: nearly all actives have a fitted effect of over 55% in size
Conditions: HEK293 GLP-1R CRE-luciferase, luminescence, 24 h, GLP-1R form is constitutively active; activity change, negative = inhibition: at 38.3 µM (top of the series) unless noted
Summary of the method: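 HEK293 cells stably co-expressing constitutively active GLP-1R and a cAMP-responsive luciferase reporter were seeded in DMEM with 10% Nu serum, given compounds after 12 h, and incubated 24 h at 37 deg C. Luminescence was then read.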
% is set by controls: 0 for no effect and ±100 for the full control effect; potency is the fitted concentration of half-maximal effect; tags give direction and shape of the fitted curve.

Chain of UniProt P43220 (P43220 whole entry, looked up): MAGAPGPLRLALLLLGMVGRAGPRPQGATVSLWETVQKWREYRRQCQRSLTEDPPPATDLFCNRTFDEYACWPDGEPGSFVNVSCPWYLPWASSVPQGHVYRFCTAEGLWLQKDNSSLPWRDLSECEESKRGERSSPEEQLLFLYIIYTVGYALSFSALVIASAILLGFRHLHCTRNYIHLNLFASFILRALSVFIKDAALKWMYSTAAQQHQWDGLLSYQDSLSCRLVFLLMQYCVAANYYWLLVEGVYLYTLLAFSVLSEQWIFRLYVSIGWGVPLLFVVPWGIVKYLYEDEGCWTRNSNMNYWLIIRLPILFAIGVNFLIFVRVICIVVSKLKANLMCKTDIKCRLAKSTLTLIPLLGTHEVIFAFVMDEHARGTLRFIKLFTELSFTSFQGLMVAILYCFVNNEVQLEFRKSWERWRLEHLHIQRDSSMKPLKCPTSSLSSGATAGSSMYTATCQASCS

| Structure (SMILES) | Potency | activity change, negative = inhibition |
| --- | --- | --- |
| COCCn1c(C)cc(C2=NNC(=Nc3ccccc3F)SC2)c1C | inconclusive [inhibitor, full curve, poor fit] |  |
| COc1ccc(OCCN2CCN(C(=O)c3ccc(OC(F)F)c(OC)c3)CC2)cc1 | inconclusive [inhibitor, partial curve, poor fit] |  |
| Cc1cccc(C)c1N=C1C(=O)Nc2ccccc21 | inconclusive [inhibitor, full curve, poor fit] |  |
| Cc1cc(/C=C2/NC(=O)N(Cc3ccccc3F)C2=O)c(C)n1C(C)C | inconclusive [inhibitor, single point] |  |
| Cc1cccc(C)c1NC(=S)Nc1ccc(F)cc1 |  | inactive: -18% [at 7.66 µM] |
| CCCOc1ccc(NC(=O)CC2C(=O)N(CC)C(=S)N2CCNC(C)=O)cc1 (configuration not stated) |  | inactive: 2.37% |
| COCCNC(=O)NC(=O)COC(=O)c1ccc2[nH]c3c(c2c1)CCCC3 | inconclusive [inhibitor, single point] |  |
| CCC(Oc1ccccc1)C(=O)Nc1ccc(OCc2cc(=O)n3ccc(C)cc3n2)cc1 (configuration not stated) |  | inactive: 7.82% |
| N=c1c2c(-c3ccccc3)c(-c3ccccc3)oc2ncn1CCN1CCOCC1 | inconclusive [inhibitor, single point] |  |
| Fc1ccc(-c2cc(-c3ccccc3)nc(-n3cccn3)n2)cc1 | inconclusive [inhibitor, single point] |  |
| CCCc1nn(C)c(C(=O)Nc2ccc(CC)cc2)c1Cl | inconclusive [inhibitor, single point] |  |
| COc1ccc(/C=N/NS(=O)(=O)c2ccccc2)cc1OS(=O)(=O)c1ccc(C)cc1 | inconclusive [inhibitor, partial curve] |  |
| COc1ccc(N(C)S(=O)(=O)c2cccc(C(=O)NCC(c3cccs3)N(C)C)c2)cc1 (configuration not stated) | inconclusive [inhibitor, single point] |  |
| COC(=O)C1=C(C)N(c2ccc(C)cc2)/C(=C/c2ccc(O)cc2)C1=O | inconclusive [inhibitor, full curve] |  |
| CN(CC(=O)Nc1ccc(F)cc1)C(=O)c1ccc(-c2ccc(Cl)cc2)o1 | inconclusive [inhibitor, partial curve, poor fit] |  |
| CCOC(=O)c1c(NC(=O)c2ccco2)n(C2CCCCC2)c2nc3ccccc3nc12 | inconclusive [inhibitor, single point] |  |
| Cc1ccc(C(=O)c2ccccc2C(=O)OCC(=O)Nc2ccc(SC(F)F)cc2)cc1 | active: 8.91 µM |  |
